# Data published in publication PMC6919601, “Identification of Plasmodium dipeptidyl aminopeptidase allosteric inhibitors by high throughput screening” (PLoS ONE, 2019).
# About 230 (0.21%) of roughly 110,000 compounds showed an effect of 50% or more. The list shows a part of the results.
# Molecular target: DPAP1 (Plasmodium falciparum, UniProt Q8IIJ9)
# Test: primary screen, percent inhibition; read by cleavage of a fluorogenic dipeptide substrate; higher = more effect of the substance
# Design: species or system P. falciparum D10 trophozoite lysates; single well
# 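Also: 30 min substrate incubation versus DMSO and 10 µM JCP410 controls.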
# DPAP1, sequence (Q8IIJ9 whole entry, looked up): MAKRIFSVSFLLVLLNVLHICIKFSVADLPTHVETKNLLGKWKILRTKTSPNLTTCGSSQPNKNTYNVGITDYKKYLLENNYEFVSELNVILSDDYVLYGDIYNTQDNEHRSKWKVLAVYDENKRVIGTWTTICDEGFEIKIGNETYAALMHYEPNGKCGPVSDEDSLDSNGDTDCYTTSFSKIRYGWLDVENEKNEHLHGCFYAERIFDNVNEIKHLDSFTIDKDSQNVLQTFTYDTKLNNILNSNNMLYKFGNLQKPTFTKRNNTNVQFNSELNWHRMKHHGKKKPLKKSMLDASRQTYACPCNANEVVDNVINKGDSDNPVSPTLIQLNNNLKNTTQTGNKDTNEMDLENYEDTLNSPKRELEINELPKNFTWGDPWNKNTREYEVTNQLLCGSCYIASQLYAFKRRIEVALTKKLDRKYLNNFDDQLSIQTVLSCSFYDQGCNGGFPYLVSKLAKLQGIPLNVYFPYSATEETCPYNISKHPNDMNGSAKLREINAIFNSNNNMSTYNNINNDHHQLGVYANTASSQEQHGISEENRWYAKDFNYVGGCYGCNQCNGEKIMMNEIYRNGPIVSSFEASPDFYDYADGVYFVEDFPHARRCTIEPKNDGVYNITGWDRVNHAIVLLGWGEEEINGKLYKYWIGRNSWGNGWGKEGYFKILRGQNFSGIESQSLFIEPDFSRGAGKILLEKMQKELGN
row,Structure (SMILES),% Inhibition @ 10 uM
1,COCCCNC(=O)c1cc(-c2ccncc2)nc2ccc(S(=O)(=O)N3CCOCC3)cc12,-6.4%
2,COC(=O)c1c(NC(=O)c2ccccc2C)sc(C(=O)Nc2ccc(OC)cc2)c1C,4.64%
3,CCCCNC(=O)CCCc1nnc2n(C)c(=O)c3sccc3n12,-4.58%
4,Cc1nc2cccnc2[nH]1,0.708%
5,CC1CN(c2ccc(Cl)cc2[N+](=O)[O-])CCN1 (stereo not shown),-0.216%
6,CN(C)c1ccc(C(=O)CC2(O)C(=O)N(Cc3ccccc3)c3ccccc32)cc1 (stereo not shown),-1.99%
7,Cc1occc1C(=O)NC1CCCCCCC1,-0.622%
8,Cc1cccc(-c2noc(CN(C(=O)C(C)Oc3cccc(Cl)c3)C(C)C)n2)c1 (stereo not shown),-1.24%
9,COc1ccc(C(=O)Nc2cc3nn(-c4ccc(OC)cc4)nc3cc2C)cc1,-3.28%
10,Cc1ccccc1OCCCN1CCCCC1,5.29%
11,Nc1nonc1-c1nc2ccccc2n1Cc1nc(O)c2ccccc2n1,-1.11%
12,CC1CC(C)CN(CCCNC(=O)Cn2cnc3onc(-c4ccc(F)cc4)c3c2=O)C1 (stereo not shown),-1.05%
13,Cc1nc2c(c(C)nn2-c2ccccc2)c(C)c1Cl,-1.69%
14,CCOCCCNC(=O)CN1C(=O)CSc2c1c(C)nn2-c1ccccc1,1.46%
15,CC(=O)Nc1cccc(OCC(=O)Nc2c(C)cc(Br)cc2C)c1,3.9%
16,Cc1cc(C)cc(NC(=O)COc2ccc(S(=O)(=O)NC(C)C)cc2)c1,0.83%
17,Cc1onc(-c2ccccc2Cl)c1C(=O)Nc1nc[nH]n1,0.389%
18,CC(=O)N1N=C(c2ccccc2O)CC1c1ccc(Cl)cc1Cl (stereo not shown),-1.43%
19,CCC(C(=O)N1CCCCCC1)n1nc(C)n2c(cc3sccc32)c1=O (stereo not shown),1.8%
20,CCOc1cc(C(=O)N2CCN(c3ccccc3F)CC2)cc(OCC)c1OCC,0.727%
21,CCCCN(CC)CCCNC(=O)Cn1ncc2c1-c1cc(C)ccc1OC2,-2.67%
22,COc1nc(Nc2ccccc2)nc(N2CCCC2)n1,-4.23%
23,Cc1c(C(=O)N(C)Cc2ccccc2)sc2nc3n(c(=O)c12)CCCCC3,2.07%
24,CC1=C(C(=O)OCC2CCCO2)C(c2ccc(Cl)c(Cl)c2)NC(=O)N1 (stereo not shown),-8.85%
25,CCc1ccc2ncc(S(=O)(=O)c3ccccc3)c(N3CCC4(CC3)OCCO4)c2c1,-8.57%
26,COc1ccc(-n2c(S)nnc2-c2cc(OC)c(OC)c(OC)c2)cc1,3.61%

row,Structure (SMILES),% Inhibition @ 10 uM
1,COc1ccccc1Cc1nc(-c2ccncc2)no1,-1.68%
2,CCOc1ccc(C(=O)C2=C(O)C(=O)N(CCCN3CCOCC3)C2c2ccc(C)cc2)cc1C (stereo not shown),3.15%
3,Cc1ccc(N2CCN(S(=O)(=O)N3CCOCC3)CC2)cc1Cl,0.389%
4,O=C(CN(Cc1ccccc1)S(=O)(=O)c1cc(Cl)ccc1Cl)NCc1ccco1,-5.35%
5,O=C(Nc1cccc(C(F)(F)F)c1)/C(=C/c1ccco1)NC(=O)c1cccs1,-0.958%
6,CCOc1ccc(CCNC(=O)c2oc3ccc4c(c3c2C)C(O)CC(C)(C)O4)cc1OCC (stereo not shown),2.32%
7,O=C(NCCCN1CCC(Cc2ccccc2)CC1)c1nnc(Cc2ccc3c(c2)OCO3)o1,3.99%
8,O=c1oc(-c2ccccc2Cl)nc2c1cnn2-c1ccccc1,5.04%
9,OC(c1ccccc1)c1nc2ccccc2n1-c1ccccc1 (stereo not shown),-1.15%
10,Cc1ccc(C)c(CSc2nncn3c2cc2occc23)c1,0.616%
11,CC(C(=O)Nc1c2c(cc3c1CCC3)CCC2)N1CCCC1 (stereo not shown),-1.61%
12,Cc1onc(-c2c(Cl)cccc2Cl)c1C(=O)Nc1nccs1,-3.04%
13,Cc1ccnc(NC(=O)c2cnn(-c3ccccc3)c2-n2cccc2)c1,-6.3%
14,Cn1nc(C(=O)NCCN2CCC(Cc3ccccc3)CC2)c2c1-c1ccccc1OC2,8.81%
15,CCC(NC(=O)c1ccc(OC)c(OC)c1)c1ccccc1 (stereo not shown),-2.19%
16,Cc1onc(-c2ccccc2)c1C(=O)Nc1ccccc1C(F)(F)F,-5.49%
17,COc1ccc(NC(=O)c2ccc(OC)c(OC)c2)cc1OC,-4.58%
18,Oc1ccccc1-c1nc2ccccc2[nH]1,-0.771%
19,O=C1CC(c2cccs2)Sc2ccccc2N1 (stereo not shown),2.87%
20,Nc1cc(-c2ccc(Br)cc2)no1,0.66%
21,c1ccc2[nH]c(Sc3nc4ccccc4n4cnnc34)nc2c1,7.74%
22,CCN(CC)S(=O)(=O)N1CCC(C(=O)NCCc2ccccc2)CC1,1.16%
23,Cc1cccc(NC(=O)COc2cccc(C)c2)c1,-1.97%
24,Cc1cc2c(c(=O)n1Cc1ccccn1)C(c1cccc(Cl)c1)C(C#N)=C(N)O2 (stereo not shown),0.627%
25,CC1=C(C(=O)Nc2ccc(C)cn2)C(c2cccc(Br)c2)C2=C(O)CCCC2=N1 (stereo not shown),1.02%
26,N#C/C(=C/Nc1ccccc1)c1nc(-c2ccc(Cl)cc2Cl)cs1,0.526%

row,Structure (SMILES),% Inhibition @ 10 uM
1,Cc1ccc(-n2ncc(C(=O)N3CCCCC3C)c2NC(=O)c2ccco2)cc1C (stereo not shown),-3.33%
2,N#Cc1c2c(c(Cl)n3c1nc1ccccc13)CCC2,5.24%
3,CCc1ccc(CN2CCN(C(=O)c3cc(OC)c(OC)c(OC)c3)CC2)cc1,11.6%
4,CCSc1nc(-c2ccccc2)ccc1C#N,1.96%
5,CC(CCc1ccccc1)NC(=O)CCn1c(=O)c2cccn2c2cccnc21 (stereo not shown),0.951%
6,COc1cc2c(cc1NC(=O)c1cnn(C)c1)oc1ccccc12,-4.82%
7,COc1ccc(C(=O)NCCN2CCOCC2)c(OC)c1,13.6%
8,O=C1ON=C(c2ccccc2)/C1=C\c1ccccc1O,-2.14%
9,Cc1c2c(n3c(nc4ccccc43)c1C#N)N(Cc1cccnc1)CC2,-1.11%
10,COc1cc(C)c(CN2CCC3(C=Cc4ccccc43)CC2)cc1C,6.41%
11,N#CC1=C(N)OC2=C(C(=O)CCC2)C1c1ccc(-c2ccc(Cl)cc2Cl)s1 (stereo not shown),2.44%
12,CSc1nc2c(c(=O)n1C1CCCCC1)C1(CCCC1)Cc1ccccc1-2,1.27%
13,CN(CC(=O)Nc1ccc(C(F)(F)F)cc1)S(=O)(=O)c1cc(Cl)ccc1Cl,-0.992%
14,CCc1ccc(CNC(=O)CSCc2ccc(C)cc2)cc1,0.514%
15,N#CC1C(=O)Nc2sc(C(=O)c3ccc(Br)cc3)c(N)c2C12CCCCC2 (stereo not shown),0.385%
16,O=C(Cc1ccc(F)cc1)Nc1nc2ccccc2s1,-0.872%
17,Nc1nonc1-c1noc(COc2c(F)c(F)cc(F)c2F)n1,-7.23%
18,CC(C)(C)n1ncc2c(=O)n(Cc3cccc(C(F)(F)F)c3)cnc21,-1.75%
19,Cc1cccc(CCNC(=O)c2cc3c(s2)-c2ccccc2S(=O)(=O)C3)c1,0.953%
20,CCc1ccc(C2=NNC(=O)CC2)cc1,-2.4%
21,COc1ccc(/C=C(\C#N)c2nc(-c3cccs3)cs2)cc1OC,4.35%
22,O=C(Cn1c2ccccc2c2cnnc(O)c21)NCc1cccnc1,1.38%
23,COc1ccc(OC)c(CCNC(=O)CSCc2cnn(-c3ccccc3)c2-n2cccc2)c1,3.24%
24,OCCN1CCN(c2c(O)nc3ccc(Cl)cc3c2-c2ccccc2)CC1,-2.67%
25,COc1ccccc1OCC(=O)Nc1ccccc1,3.8%
26,Cc1[nH]c2ccccc2c1C(Nc1ccccc1F)c1cccnc1 (stereo not shown),4.31%

row,Structure (SMILES),% Inhibition @ 10 uM
1,O=C(O)/C=C\C(=O)Nc1ccc(Br)cc1C(=O)O,1.66%
2,Cc1ccc(-c2nc(CS(=O)CC(=O)NC3CCCC3)c(C)o2)cc1 (stereo not shown),0.689%
3,O=C1C=C(NCc2ccc(Cl)cc2)CC(c2ccco2)C1 (stereo not shown),-4.48%
4,Nc1[nH]nc(-c2ccccc2)c1-c1ccccc1,3.9%
5,CCCN(CCC)c1ncnc2c1cnn2C,1.42%
6,CC(C)CCNC(=O)c1c(O)nc2c(c1O)CCCC2,2.8%
7,Cc1ccc(CNC(=O)Cn2ccc3cc(S(=O)(=O)N4CCCC4)ccc32)cc1,-3.12%
8,COCc1[nH]nc2c1C(c1c[nH]c3ccccc13)C(C#N)=C(N)O2 (stereo not shown),-0.994%
9,CC1CN(c2ccc([N+](=O)[O-])c(NCc3ccccc3)c2)CCN1 (stereo not shown),-0.711%
10,Cc1cccc2c1-c1sc(C(=O)N(CCN(C)C)Cc3ccco3)cc1CO2,0.291%
11,CCOC(=O)c1ccc(Oc2coc3cc(OC)ccc3c2=O)cc1,3.93%
12,COc1ccc(CC(=O)Nc2c3c(nc4c2CCC4)CCCC3)cc1OC,9.01%
13,O=C(Nc1ccc2c(c1)OCO2)C12CC3CC(CC(C3)C1)C2,1.15%
14,CCCC1CCc2c(sc(NC(=O)C3CC=CCC3C(=O)O)c2C(N)=O)C1 (stereo not shown),2.43%
15,CN1CCN(c2ccc(C=C3C(=O)N(C)C(=O)N(C)C3=O)o2)CC1,-5.28%
16,CN1C(N)=NC(=O)/C1=C/c1cc2c(cc1Cl)OCO2,1.27%
17,Cc1cc(C(F)F)nn1CC(=O)N1CCc2ccccc21,9.65%
18,COc1cccc(C(=O)c2cc3cccc(OC)c3o2)c1,-7.3%
19,Cc1ccc2oc(=O)c3cnn(CC(=O)NCCc4ccc(Cl)cc4)c3c2c1,4.74%
20,COc1ccc(-c2cc(C(=O)NCCc3ccc(OC)c(OC)c3)no2)cc1,-4.79%
21,Cc1cc(C)cc(OCC(=O)Nc2ccc(C#N)cc2)c1,-3.75%
22,Cc1cc(C)c(NC(=O)C2CC(=O)N(c3ccc(Cl)cc3)C2)c(C)c1 (stereo not shown),0.431%
23,COc1ccc(Cl)cc1CC(=O)O,-0.403%
24,CN(CC(=O)Nc1ccc(Br)cc1F)S(=O)(=O)c1cc(Cl)ccc1Cl,1.18%
25,Cc1sc(NC(=O)CSc2nc3ccccc3s2)c(C#N)c1C,4.65%
